Drawing on PubChem BioAssay (NCI), this text covers GI50 and TGI for seven compounds.

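Cells were grown in 96-well plates and exposed to each compound for 48 hours at five concentrations; endpoints were interpolated linearly between bracketing concentrations, or set to the highest concentration if not reached. GI50 marks 50% less growth. TGI marks complete inhibition of growth.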 A value given as a limit tells only on which side of the number the result lay.

In the assay the test system is NCI-H322M lung. Briefly: inhibition of tumour cell growth, NCI panel, 48 h.

`Nc1cccnc1/C=N/NC(=S)NCCNC(=O)c1ccc(-n2nc(-c3ccccc3O)nc2-c2ccccc2O)cc1`: the GI50 is 0.649 µM and the TGI was greater than 100 µM.

For `COc1ccc(C(=O)/C=C/c2cc(C(F)(F)F)cc(C(F)(F)F)c2)cc1S(N)(=O)=O`, the GI50 is 1.58 µM and the TGI was 3.24 µM.

For the compound `Cc1ccc(-c2cc(C(=O)N=Nc3c(O)[nH]c4ccc(F)cc34)c3ccccc3n2)cc1`, the GI50 is 12.2 µM and the TGI was 31.3 µM.

Take `COc1ccc(-c2cc(C(=O)N=Nc3c(O)[nH]c4ccccc34)c3ccccc3n2)cc1`: the GI50 is 5.43 µM and the TGI was determined as 18.6 µM.

With `COc1ccc(-c2cc(C(=O)N=Nc3c(O)[nH]c4ccc(Cl)cc34)c3ccccc3n2)cc1`, the GI50 is 15.1 µM and the TGI stood at 30 µM.

For the compound `Clc1ccc(-c2nc3ccc(-c4nnc(SCc5ccccc5)o4)cc3[nH]2)cc1`, the GI50 was 18.8 µM and the TGI was greater than 100 µM.

In the case of `Cc1nn(-c2ccccc2)c2nc(C)n(CC(=O)N/N=C/c3ccccc3O)c(=O)c12`, the GI50 is 3.47 µM and the TGI is 41.6 µM.
